In PMC4907068, “Phosphatase ABI1 and okadaic acid-sensitive phosphoprotein phosphatases inhibit salt stress-activated SnRK2.4 kinase” (BMC Plant Biology, 2016):
These are yes or no findings as the source states them, for the method shown. For part of these data: Binding seen in cells or lysates may run through a third protein. Some results given as binding are weak or reduced against the parent protein; the word gives no strength. For part of these data: Sequences can lack the tags named with a protein.

The chains behind the UniProt entries cited, without tags or fusion partners.
UniProt O04719: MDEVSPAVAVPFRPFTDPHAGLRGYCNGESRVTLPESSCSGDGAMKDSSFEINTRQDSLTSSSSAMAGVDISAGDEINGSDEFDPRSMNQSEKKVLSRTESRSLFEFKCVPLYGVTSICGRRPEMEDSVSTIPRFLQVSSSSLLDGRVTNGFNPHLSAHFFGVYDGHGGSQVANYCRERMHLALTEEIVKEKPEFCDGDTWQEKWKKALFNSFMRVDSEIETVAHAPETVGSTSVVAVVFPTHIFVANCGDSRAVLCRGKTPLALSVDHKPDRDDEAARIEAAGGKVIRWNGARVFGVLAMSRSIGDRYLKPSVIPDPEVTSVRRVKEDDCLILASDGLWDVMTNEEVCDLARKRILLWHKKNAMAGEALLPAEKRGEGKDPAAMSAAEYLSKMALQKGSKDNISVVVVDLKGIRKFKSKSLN

What was measured:
[1] = molecular target: T1, SnRK2.4 in fusion with the Gal4 DNA-binding domain (Arabidopsis thaliana) (UniProt P43291); assay: two-hybrid; AH109 yeast; SnRK2s in pGBT9 (Gal4 DNA-binding domain), PP2C phosphatases in pGAD424 (Gal4 activation domain); growth on SD without Leu/Trp/His with 1 mM - 10 mM 3-AT or SD without Leu/Trp/Ade
T1 sequence: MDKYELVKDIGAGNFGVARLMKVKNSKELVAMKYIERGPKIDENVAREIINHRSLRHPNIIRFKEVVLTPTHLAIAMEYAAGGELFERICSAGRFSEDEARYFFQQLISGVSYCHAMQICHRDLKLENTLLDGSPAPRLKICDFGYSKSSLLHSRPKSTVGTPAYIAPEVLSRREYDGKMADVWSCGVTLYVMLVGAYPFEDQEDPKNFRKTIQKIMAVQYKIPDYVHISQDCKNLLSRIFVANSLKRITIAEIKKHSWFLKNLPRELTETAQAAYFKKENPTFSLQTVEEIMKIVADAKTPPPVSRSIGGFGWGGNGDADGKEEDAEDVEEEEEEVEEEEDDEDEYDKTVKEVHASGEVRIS

[2] = molecular target: T2, SnRK2.8 in fusion with the Gal4 DNA-binding domain (Arabidopsis thaliana) (UniProt Q9M9E9); assay: as above
T2 sequence: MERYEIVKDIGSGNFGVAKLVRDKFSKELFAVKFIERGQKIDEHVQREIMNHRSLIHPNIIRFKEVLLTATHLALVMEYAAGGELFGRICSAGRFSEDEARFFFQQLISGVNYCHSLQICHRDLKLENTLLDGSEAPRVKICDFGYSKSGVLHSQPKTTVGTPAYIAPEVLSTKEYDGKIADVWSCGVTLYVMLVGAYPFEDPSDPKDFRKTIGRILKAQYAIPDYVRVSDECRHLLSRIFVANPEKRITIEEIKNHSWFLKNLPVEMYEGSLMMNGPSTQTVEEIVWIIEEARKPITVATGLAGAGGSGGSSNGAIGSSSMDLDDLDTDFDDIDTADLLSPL

[3] = molecular target: T3, SnRK2.6 in fusion with the Gal4 DNA-binding domain (Arabidopsis thaliana) (UniProt Q940H6); assay: as above
T3 sequence: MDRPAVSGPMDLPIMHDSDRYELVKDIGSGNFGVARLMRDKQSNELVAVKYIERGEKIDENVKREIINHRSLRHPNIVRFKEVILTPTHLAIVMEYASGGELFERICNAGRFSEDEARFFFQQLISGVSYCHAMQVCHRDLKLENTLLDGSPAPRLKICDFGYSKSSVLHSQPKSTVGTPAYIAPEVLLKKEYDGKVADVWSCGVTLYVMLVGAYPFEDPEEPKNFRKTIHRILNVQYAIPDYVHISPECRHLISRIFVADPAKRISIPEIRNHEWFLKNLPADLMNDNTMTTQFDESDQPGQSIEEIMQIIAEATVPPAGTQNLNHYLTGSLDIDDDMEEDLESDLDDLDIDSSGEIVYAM

[4] = molecular target: T4, nEYFP-SnRK2.8 (Arabidopsis thaliana) (UniProt Q9M9E9); assay: split reporter; BiFC with complementary non-fluorescent fragments of EYFP, transiently co-expressed in Arabidopsis leaf protoplasts; confocal microscopy 16 h after transformation
T4 sequence: T2 sequence

[5] = molecular target: T5, nEYFP-SnRK2.6 (Arabidopsis thaliana) (UniProt Q940H6); assay: as above
T5 sequence: T3 sequence

[6] = molecular target: T6, nEYFP-SnRK2.4 (Arabidopsis thaliana) (UniProt P43291); assay: as above
T6 sequence: T1 sequence

[7] = molecular target: T7, SnRK2.10 in fusion with the Gal4 DNA-binding domain (Arabidopsis thaliana) (UniProt Q9C958); assay: two-hybrid; AH109 yeast; SnRK2s in pGBT9 (Gal4 DNA-binding domain), PP2C phosphatases in pGAD424 (Gal4 activation domain); growth on SD without Leu/Trp/His with 1 mM - 10 mM 3-AT or SD without Leu/Trp/Ade
T7 sequence: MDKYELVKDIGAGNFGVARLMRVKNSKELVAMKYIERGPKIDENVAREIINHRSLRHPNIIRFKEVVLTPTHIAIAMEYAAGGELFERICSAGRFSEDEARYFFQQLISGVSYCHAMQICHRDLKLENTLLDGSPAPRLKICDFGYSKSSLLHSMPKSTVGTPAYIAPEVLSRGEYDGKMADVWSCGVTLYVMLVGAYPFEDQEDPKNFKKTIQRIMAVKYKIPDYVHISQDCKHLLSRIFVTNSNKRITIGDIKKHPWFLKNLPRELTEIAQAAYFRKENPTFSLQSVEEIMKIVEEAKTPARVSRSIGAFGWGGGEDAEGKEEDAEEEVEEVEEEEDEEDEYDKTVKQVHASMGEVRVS

[8] = molecular target: T8, SnRK2.10 in fusion with the Gal4 DNA-binding domain (Arabidopsis thaliana), Q9C958; assay: as above; details: remark: other sources report otherwise
T8 chain: T7 sequence

“ABI1 (ABA-insensitive 1) in fusion with the Gal4 activation domain (from UniProt P49597 1-434) (enzyme)” was tested, and the binding [1] was “binds”, the binding [2] was “binds” and the binding [3] was “binds”.

With “ABI1-cEYFP (from UniProt P49597 1-434) (enzyme)” the binding [4] was “binds”, the binding [5] was “binds” and the binding [6] was “binds”.

With “ABI2 in fusion with the Gal4 activation domain (from UniProt O04719 1-423) (enzyme)” the binding [2] was “binds weakly” and the binding [7] was “no binding”.

B1: ABI1 (ABA-insensitive 1) in fusion with the Gal4 activation domain, P49597 1-434 (enzyme)
chain: MEEVSPAIAGPFRPFSETQMDFTGIRLGKGYCNNQYSNQDSENGDLMVSLPETSSCSVSGSHGSESRKVLISRINSPNLNMKESAAADIVVVDISAGDEINGSDITSEKKMISRTESRSLFEFKSVPLYGFTSICGRRPEMEDAVSTIPRFLQSSSGSMLDGRFDPQSAAHFFGVYDGHGGSQVANYCRERMHLALAEEIAKEKPMLCDGDTWLEKWKKALFNSFLRVDSEIESVAPETVGSTSVVAVVFPSHIFVANCGDSRAVLCRGKTALPLSVDHKPDREDEAARIEAAGGKVIQWNGARVFGVLAMSRSIGDRYLKPSIIPDPEVTAVKRVKEDDCLILASDGVWDVMTDEEACEMARKRILLWHKKNAVAGDASLLADERRKEGKDPAAMSAAEYLSKLAIQRGSKDNISVVVVDLKPRRKLKSKPLN
With B1 the binding [8] was “no binding”.
